Measurements taken from PubChem BioAssay AID1671194 (National Center for Advancing Translational Sciences (NCATS), 2021).
The campaign covered roughly 140,000 compounds. About 240 (0.17%) were called active. Inconclusive means that the source gave no clear call. Such entries were picked first, then a sample of the others. Calls come from the whole dose curve; as a rule, active = well fitted inhibition curve with a large enough effect; inconclusive = small, poorly fitted or top-dose-only effect; inactive = no such curve, though single readings can be large or run the other way. A potency beside an inconclusive call is a rough fit, not a confirmed value.

assay: Primary qHTS assay for inhibitors of alpha-synuclein gene (SNCA) expression; conditions: HEK-293 SNCA-luciferase knock-in, luminescence, 24 h; series mostly up to 57.2 µM; note: nearly all actives have a fitted effect of over 45% in size
Potency is the fitted concentration of half-maximal effect; tags give direction and shape of the fitted curve.

Compound | Potency
CC1=C[C@@H](CNC(=O)C2CC2)[C@H](C(C)C)C[C@H]1CC(=O)Nc1ccccn1 | inconclusive: 12.6 µM [inhibitor, full curve, poor fit]
COc1ccc(C(C)NC(=O)c2noc(-c3ccc[nH]c3=O)n2)cc1OC (stereo not drawn) | inconclusive: 3.16 µM [inhibitor, full curve, poor fit]
COc1ccc(OC)c(-c2noc(CSc3nnc(Cc4ccccc4)n3-c3cccc(C)c3)n2)c1 | inconclusive: 39.8 µM [inhibitor, single point]
CC(=O)N1CCN(c2cc(-c3noc([C@@H]4CCCN4Cc4ccccc4)n3)ccn2)CC1 | inconclusive: 10 µM [inhibitor, full curve, poor fit]
Cc1ccccc1NC(=O)c1ccc2c(c1)OCCN(CCC(F)(F)F)C2 | inactive
CCNC(=O)N[C@@H]1C=C[C@@H](c2c(C)nn(-c3ccc(C(C)C)cc3)c2C)C1 | inactive
Fc1ccc(-c2nnc3ccc(Nc4ccc(N5CCOCC5)cc4)nn23)nc1 | inconclusive: 56.2 µM [inhibitor, single point]
O=C(CN1C(=O)NC2(CCOCC2)C1=O)Nc1ccc(Br)cc1 | inconclusive: 44.7 µM [inhibitor, single point]
COc1ccc(C)cc1NC(=O)c1ccc2c(Cl)c3c(nc2c1)CCC3 | inactive
O=C(Nc1ccc(O)cc1)c1cccc(S(=O)(=O)N2CCOCC2)c1 | inconclusive: 3.16 µM [inhibitor, full curve]
O=C(NCc1ccccc1)c1ccc2c(c1)n(Cc1ccc(F)cc1)c(=O)c1ccnn12 | inactive
C=CCn1cc2c3c(cccc31)[C@H](CC(C)C)N[C@H](C(=O)NCCC)C2 | inconclusive: 56.2 µM [inhibitor, single point]
Cc1ccc([N+](=O)[O-])cc1S(=O)(=O)N(C)N=Cc1cnc2ccc(Br)cn12 | inconclusive: 0.0096 µM [inhibitor, full curve]
CN(C)c1ccc(CN2CCC[C@H]2c2nc(-c3ccnc(N4CCC(C(N)=O)CC4)c3)no2)cc1 | inactive
CC(C)C1=NOC(C(=O)N2CCn3nc(C(=O)NCc4ccccn4)cc3C2)C1 (stereo not drawn) | inconclusive: 39.8 µM [inhibitor, single point]
CCOc1ccc(CC(=O)NC2CCN(c3cc(-c4cccs4)[nH]n3)C2)cc1 (stereo not drawn) | inconclusive: 39.8 µM [inhibitor, single point]
COCc1nncn1C1CCN(S(=O)(=O)c2cc(F)ccc2OC)CC1 | inconclusive: 8.91 µM [inhibitor, single point]
Cc1ccc(CNC(=O)CSc2nnc(C)c3c(C)n(-c4ccccc4)nc23)cc1 | inconclusive: 28.2 µM [inhibitor, single point]
Cc1ccc(C(=O)Nc2ccc3c(N4CCCCC4)ncnc3c2)cc1F | inconclusive: 1.41 µM [inhibitor, full curve, poor fit]
CN(C)C(=O)c1cc(-c2ccc(Cl)cc2Cl)nc2c1cnn2C | inactive
Cc1ccccc1N1Cc2c(NCc3cccs3)ncnc2N(C)CC1=O | inconclusive: 2 µM [inhibitor, partial curve, poor fit]
CCc1nnc([C@@H]2CC(F)(F)CN2C(=O)c2ocnc2C)o1 | inactive

Compound | Potency
COCCNC(=O)[C@@H]1C[C@H](Oc2ccccc2)CN1C(=O)c1nn(C)c2ccccc12 | inconclusive: 8.91 µM [inhibitor, single point]
O=C(O)Cn1ccc2cc(OCCc3cccc(-c4ccc(Cl)cc4)c3)cnc21 | inconclusive: 12.6 µM [inhibitor, single point]
C[C@H]1CCCN1C(=O)c1nnc(COc2ccc(Cl)cc2)n1-c1ccccc1 | inconclusive: 31.6 µM [inhibitor, single point]
COc1ccc(CN2CCC3(Cc4ccccc4NC3=O)C2)cc1 (stereo not drawn) | inactive
Cc1ccc(CN2CCOC[C@H](Oc3ccc(C(F)(F)F)cc3)C2)cc1 | inconclusive: 5.01 µM [inhibitor, single point]
Cc1ccc(C(=O)Nc2ccc3c(N4CCOCC4)ncnc3c2)cc1 | inactive
CCOc1ccccc1C1NC(=O)N(CC(=O)Nc2cccc(Cl)c2)C2=C1C(=O)OC2 (stereo not drawn) | inconclusive: 14.1 µM [inhibitor, partial curve, poor fit]
CC(=O)NCCC1CCN(C(=O)Nc2ccc(C)c(F)c2)CC1 | inconclusive: 39.8 µM [inhibitor, single point]
COCCNC(=O)c1ccc2c(c1)N(C)C(CC(=O)NCc1ccoc1)CO2 (stereo not drawn) | inactive
COCCN1CC2(CCC1=O)CCN(c1nc(C(C)C)ccc1C#N)CC2 | inconclusive: 35.5 µM [inhibitor, single point]
Cc1ccc(-n2c(C3CCN(C(=O)Cc4cccc(F)c4)CC3)n[nH]c2=O)cc1 | inactive
O=C(CNC(=O)c1cccc(-c2ccc(C(F)(F)F)cc2)c1)NCCc1ccccc1 | inconclusive: 12.6 µM [inhibitor, partial curve, poor fit]
COc1ccc(CN2CC[C@@H](CO)N(C)c3nc(C)ccc3C2)cc1 | inactive
CC(=O)N1CCCC1C(=O)N1CCC(N2Cc3cccn3C2=O)CC1 (stereo not drawn) | inconclusive: 2 µM [inhibitor, full curve]
COc1ccc(C)cc1NC(=O)c1cnc2ccc(C)cn2c1=O | inconclusive: 2.82 µM [inhibitor, single point]
CCCc1noc(-c2ccn3c(CNC(=O)c4ccccc4OCC)nnc3c2)n1 | inactive
Cn1c(=O)c2c(-c3ccc(Br)cc3)n(Cc3ccc(F)cc3)cc2n(C)c1=O | inconclusive: 22.4 µM [inhibitor, single point]
O=C(Cn1cccn1)N1CC(c2noc(C3CCCN3CC3CC3)n2)C1 (stereo not drawn) | inactive
COc1cccc(CN2Cc3nc(-c4ccc(F)cc4)ccc3OCC2=O)c1 | inconclusive: 56.2 µM [inhibitor, single point]
O=C(NC1CCCCC1)c1cn2cc(-c3ccccc3)sc2n1 | inactive
COc1ccc(C(=O)N[C@@H]2CN(Cc3ccccc3)C[C@H]2CN(C)C)cc1F | inconclusive: 39.8 µM [inhibitor, single point]
